Measurements: PubChem BioAssay AID1159614 (National Center for Advancing Translational Sciences (NCATS), 2016)
In all, about 45,000 compounds went through this assay and about 65 (0.1%) were called active. Calls follow the shape of the dose curve; as a rule, active = well fitted activation curve with a large enough effect; inconclusive = small, poorly fitted or top-dose-only effect; inactive = no such curve, though single readings can be large or run the other way. The list shows a part of the results.

Target: Galactocerebrosidase (Homo sapiens) (UniProt P54803)
Experiment: A Novel Cell-Based Assay to Identify Small Molecules for B -Galactocerebrosidase; also: 0% is about no effect; nearly all actives have a fitted effect of over 65% in size
Conditions: 145M-Twi-hGALC-G270D cells (Twitcher mouse brain line with human GALC G270D), HMU-beta-Gal fluorescence, 48 h; series mostly up to 57.5 µM; activation: at the top concentration
Summary of the method: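 Mutant human GALC (G270D), stably expressed in a Twitcher mouse brain cell line lacking endogenous GALC, is measured in live-treated cells via 6-hexadecanoylamino-4-methylumbelliferyl-β-galactoside hydrolysis (0.1 mM final, pH 5.2) with fluorescent detection.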

Chain of UniProt P54803 (P54803 whole entry, looked up): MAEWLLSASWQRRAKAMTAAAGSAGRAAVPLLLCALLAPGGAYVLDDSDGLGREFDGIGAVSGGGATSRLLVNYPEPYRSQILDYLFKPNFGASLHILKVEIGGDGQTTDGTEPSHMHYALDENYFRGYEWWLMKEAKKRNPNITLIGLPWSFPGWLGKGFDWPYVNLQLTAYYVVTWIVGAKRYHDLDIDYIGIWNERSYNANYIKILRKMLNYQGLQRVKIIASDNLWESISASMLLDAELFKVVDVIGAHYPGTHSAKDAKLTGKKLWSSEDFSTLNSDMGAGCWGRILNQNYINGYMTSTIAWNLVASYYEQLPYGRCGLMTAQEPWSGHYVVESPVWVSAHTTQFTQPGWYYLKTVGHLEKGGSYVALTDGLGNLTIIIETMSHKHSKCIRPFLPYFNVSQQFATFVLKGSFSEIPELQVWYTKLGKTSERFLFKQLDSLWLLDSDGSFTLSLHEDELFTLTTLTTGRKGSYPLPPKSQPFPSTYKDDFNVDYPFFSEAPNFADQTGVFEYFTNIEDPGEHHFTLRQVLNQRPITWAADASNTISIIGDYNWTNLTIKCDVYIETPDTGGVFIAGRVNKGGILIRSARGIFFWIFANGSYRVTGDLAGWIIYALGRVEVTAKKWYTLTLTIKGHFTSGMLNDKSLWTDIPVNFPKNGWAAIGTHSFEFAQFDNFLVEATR

activation, inactive:
CCC(C(=O)NCCc1cc(OC)ccc1OC)n1nc(C)c2sc3ccccc3c2c1=O (configuration not stated) 4.79%
O=C(NCc1ccc(F)cc1)C(=O)NCC(c1cccs1)S(=O)(=O)c1cccs1 (configuration not stated) -5.62%
CCC(=O)N1c2ccccc2CC1C(=O)NCCc1ccccc1 (configuration not stated) -17.1%
O=C(NCCc1ccccc1Cl)c1sc2ncccc2c1-n1cccc1 -6.2%
O=C(NC1CCN(CCc2c[nH]c3ccccc23)CC1)c1ccccc1 -10.4%
CC(C)CCNC(=O)c1cc2cc(S(=O)(=O)N3CCCCC3)ccc2n1C -10.6%
Cn1c(=O)oc2cc(S(=O)(=O)N3CCCC(C(=O)NCc4ccc(F)cc4)C3)ccc21 (configuration not stated) 3.91%
O=C(Nc1ccc(F)c(Cl)c1)N1CC=C(c2c[nH]c3ccccc23)CC1 -4.74%
CC1=C(C(N)=O)C(c2ccccc2Br)n2ncnc2N1 (configuration not stated) -4.06%
O=C(NCc1ccccc1Br)c1cnc2sc(N3CCCCCC3)nn2c1=O -5.82%
COc1ccc(CNC(=O)CCCN2C(=O)COc3ccc(C)cc32)cc1 -7.4%
Cc1ccc(N2CCN(C(=O)c3cnc(N4CCCCC4)c4ccccc34)CC2)c(C)c1 -42.9%
CCC(=O)Nc1ccccc1-c1nc2ccccc2n(CC(=O)c2ccc(C)cc2)c1=O -5.89%
CSc1ncc(Cl)c(C(=O)Nc2c(C(=O)Nc3cccc(Cl)c3)oc3ccccc23)n1 -18.6%
COc1cccc(Cn2nnc3c(=O)[nH]c(C4CCN(C(=O)c5ccccc5Cl)CC4)nc32)c1 -27%
CCOC(=O)c1ccc(NC(=O)CSc2c3c(nc4cc(Cl)ccc24)CCCC3)cc1 -14.5%
COc1cc(OC)c(NC(=O)CCCn2nc(C)c3c(C)n(-c4ccccc4)nc3c2=O)cc1Cl -3.45%
COc1ccc(-n2nc(C(=O)N3CCCC(C)C3)c3c4ccccc4n(C)c3c2=O)cc1Cl (configuration not stated) -10.8%
Cc1ccc(N2CCn3c2nc2c3c(=O)n(CCCc3ccccc3)c(=O)n2C)cc1C -11.1%
CCN(CC)c1nc2ccccc2nc1C(=O)Nc1cc(OC)c(OC)c(OC)c1 -4.91%
O=C(NC1CC(=O)N(c2ccccc2)C1)c1ccc(S(=O)(=O)N2CCCCC2)cc1 (configuration not stated) -12.4%
Cc1nn(C(=O)c2ccc(Cl)cc2)c(C)c1S(=O)(=O)N1CCCCCC1 -4.85%
Cc1nn2c(C)c(C(=O)NCc3ccco3)cnc2c1-c1ccccc1 -14%
COc1ccccc1NC(=O)C1=C(C)Nc2nc(SCc3ccccc3Cl)nn2C1c1ccccn1 (configuration not stated) -10.2%
CN(C)c1ccc(/C=C/c2noc(-c3ccccc3O)n2)cc1 -14.7%
Cc1cccc(OCC(=O)N(Cc2ccc(C(C)(C)C)cc2)Cc2ccco2)c1 -14.7%
O=c1[nH]c(=O)n(C2CCCCC2)c(O)c1C1=Nc2ccccc2SC(c2ccccc2)C1 (configuration not stated) -7.15%
COc1ccc(C2C(C(=O)Nc3cccnc3)=C(C)Nc3nc(-c4ccccc4)nn32)cc1OC (configuration not stated) -11.6%
COc1cc(OC)nc(O[C@H](C(=O)O)C(OC)(c2ccccc2)c2ccccc2)n1 -10.1%
COc1ccc(OCC(=O)NCC(c2ccc(OC)cc2)N2CCCCC2)cc1 (configuration not stated) -29.8%
CC(C)C(NS(=O)(=O)c1ccc2c(c1)oc(=O)n2C)C(=O)NCCc1ccccc1 (configuration not stated) 0.548%
COCCCNc1nc(NCc2cccc(Cl)c2)c2cnn(C)c2n1 0.229%
COc1ccc(-c2nc(CSc3nnc(C)n4c3cc3occc34)c(C)o2)cc1OC -14.7%
CCc1ccc(-n2nc(C)c3c(C)cc(=O)n(CC(=O)Nc4ccc(C(C)=O)cc4)c32)cc1 -6.16%
COc1cc(OC)c(NC(=O)N2CC3CCCN3c3ccccc32)cc1Cl (configuration not stated) -2.86%
CSc1ccc(CCNS(=O)(=O)c2ccc3c(c2)C(C)(C)C(=O)N3C)cc1 -1.82%
O=c1c2ccccc2n2c(-c3ccc(Cl)cc3)nnc2n1CCc1ccccc1 -24.2%
CC(C)c1ccc(NC(=O)C(C)N(c2ccccc2)S(C)(=O)=O)cc1 (configuration not stated) -0.254%
Cc1ccc(C(c2cccc(Br)c2)c2c(C)[nH]c3ccccc23)s1 (configuration not stated) -16.9%
COc1cc(OC)cc(C(=O)N2CCN(C(=O)COc3ccccc3)CC2)c1 -10.2%
O=C(Cn1ncc2c3ccccc3n(Cc3ccc(F)cc3)c2c1=O)NCCC1=CCCCC1 -12.2%
Cc1ccc(C)c(CN2C(=O)c3ccccc3S(=O)(=O)c3ccc(C(=O)NCCCN4CCCC(C)C4)cc32)c1 (configuration not stated) -3.47%
CCc1ccc(CNC(=O)CN2C(=O)CSc3c2c(C)nn3-c2ccccc2)cc1 16.2%
Cc1cn2c(=O)cc(COC(=O)c3cccc(NC(=O)c4ccccc4Cl)c3)nc2s1 -9.23%
Cc1ccc(CNc2ncnc3c2nnn3C)cc1 -12.7%
Cc1nn(C(=O)c2ccc(Cl)cc2)c(C)c1S(=O)(=O)N1CCOCC1 -10.3%
CCC(CC)c1nn2c(=O)cc(COc3ccc(NC(=O)c4ccc(C)cc4)cc3)nc2s1 -12.9%
Cc1c(C(=O)Nc2ccc(C(C)C)cc2)sc2nc3n(c(=O)c12)CCC3 -54.2%
CN(C)CCNc1ncnc2c1cnn2-c1cccc(Cl)c1 -4.72%
CN(C)c1ccc(C(CNC(=O)c2ccccc2C(F)(F)F)N2CCOCC2)cc1 (configuration not stated) -16.7%
NC1CCN(c2nc3c(cc2F)c(=O)c(C(=O)O)cn3-c2ccc(F)cc2F)C1 (configuration not stated) -22.8%
CCCCSc1nnc2c(n1)OC(c1ccc(Br)s1)N(C(C)=O)c1ccccc1-2 (configuration not stated) -14.2%
Cc1c(Cl)cccc1NC(=O)c1ccc2c(c1)CCN2S(=O)(=O)c1ccccc1 -8.43%
O=C(Nc1nc2n(n1)C(c1ccc(F)cc1)C=C(c1ccccc1)N2)c1ccco1 (configuration not stated) -5.66%
O=c1c(-c2cc(-c3ccccc3)nc3c2COc2ccc(Cl)cc2-3)coc2ccc(F)cc12 -10.7%
CSc1ccc(CCNC(=O)Cn2ccc3cc(S(=O)(=O)N4CCCCCC4)ccc32)cc1 -4.61%
Cc1c(C(=O)Nc2ccc(C(=O)O)cc2)nnn1-c1ccccc1 -8.72%
Cc1ccc(CN2CCCN(CC(=O)Nc3ccc(C)cc3C)S2(=O)=O)cc1 -12%
COC(=O)c1c(NC(=O)c2nc(SCc3ccc(F)cc3)ncc2Cl)sc2c1CCCC2 -6.19%
Cn1nnnc1SCCCNCc1cc(Cl)ccc1OCc1ccc(F)cc1 -30.3%
CCOc1ccccc1-c1noc(CSc2nnc(-c3ccccc3)n2-c2ccc(F)cc2)n1 -19.9%
Cc1nn2c(=O)cc(COC(=O)Cc3ccccc3)nc2s1 -24.8%
Nc1c(C(=O)Nc2ccc(OC(F)(F)F)cc2)sc2nc(-c3ccncc3)ccc12 -18.7%
COc1ccc(CNC(=O)C2CCCN(S(=O)(=O)c3cccc4nsnc34)C2)cc1 (configuration not stated) -14.8%
Cc1ccc(CCNC(=O)c2ccc3c(Cl)c4c(nc3c2)CCCC4)cc1 -23.1%
CCCC(=O)Nc1ccccc1OCc1cc(=O)n2cc(C)ccc2n1 -6.92%
COc1ccccc1CNC(=O)c1ccc2nc(N3CCCCC3)sc2c1 -6.35%
Cc1ccc(C)c(N2CCN(c3c(CN4CCCC4)c(=O)oc4ccccc34)CC2)c1 -8.94%
COc1ccc(NC(=O)CN2C(=O)COc3ccc(S(=O)(=O)N4CCCCCC4)cc32)cc1 -19.8%
CCNC(=O)/C=C/c1cccc(Br)c1 -8.62%
CCC1CN(C(=O)N2CCC(C(=O)Nc3ccccc3F)CC2)c2ccccc2O1 (configuration not stated) -4.99%
CC(C)NCCCC1(C(N)=O)c2ccccc2-c2ccccc21 -13%
Cc1ccc(-n2c(=O)cc(N3CCN(c4ccccc4Cl)CC3)[nH]c2=O)cc1 -4.01%
O=C(Nc1cccc(Cl)c1Cl)c1cc(S(=O)(=O)NCc2ccc3c(c2)OCO3)ccc1F -5.89%
CCOC(=O)c1ccc(N2C(=O)c3n[nH]c(-c4ccco4)c3C2c2ccc(C)cc2)cc1 (configuration not stated) -10.4%
Cc1nn(S(=O)(=O)c2ccc(Br)cc2)c(C)c1S(=O)(=O)N1CCCCCC1 -10.7%
Cc1cc(C)cc(NC(=O)CCS(=O)(=O)c2cccc3nsnc23)c1 -6.99%
COc1ccc(CC(=O)N2CCc3cc(OC)c(OC)cc3C2COc2cc(C)cc(C)c2)cc1OC (configuration not stated) -34.1%
COc1cccc(Cn2c(Oc3cc(C)cc(C)c3)nc3c2c(=O)n(C)c(=O)n3C)c1 -13.9%
CCc1ccc(S(=O)(=O)N(C(=O)c2ccncc2)c2ccc3oc(C)c(C(=O)OC)c3c2)cc1 -17%
COc1cccc(NC(=O)C(=O)NCC(c2ccc3c(c2)OCO3)N2CCN(C)CC2)c1 (configuration not stated) -27.7%
CCc1ccc(N(CC)C(=O)c2cc3c(=O)oc4ccc(C)cc4c3s2)cc1 -16.9%
Cc1cccc(NC(=O)CSc2ccc(-c3ccccn3)nn2)c1 -2.4%
Cc1cccc(C)c1Nc1nn2c(=O)c3cc4c(cc3nc2s1)OCO4 -7.06%
CC(=O)c1ccc(NS(=O)(=O)c2cccc(S(=O)(=O)c3ccc(Cl)cc3)c2)cc1 -30.1%
CCOc1ccc(CCNC(=O)CN2CCN(Cc3ccc(Cl)cc3)C2=O)cc1OCC -9.22%
COc1ccc2oc(=O)c(C(=O)NCCc3c(C)[nH]c4ccc(F)cc34)cc2c1 -5.02%
COCCNc1oc(-c2ccccc2)nc1S(=O)(=O)c1ccc(Br)cc1 3.75%
COc1ccc(NC(=O)CCCSc2nc(-c3ccco3)cc(C(F)(F)F)n2)cc1OC -17.5%
CCCCN(CC)CCCNC(=O)c1cc2c(=O)[nH]c3ccccc3c2n1C -14.8%
CC(=O)Nc1ccc(NS(=O)(=O)c2c(C(=O)N3CCC(C)CC3)c(C)n(C)c2C)cc1 0.394%
COc1cccc(C(=O)Nc2cccc(OCc3cc(=O)n4c5c(sc4n3)CCCC5)c2)c1 0.999%
COc1cccc(-c2nc(S(=O)(=O)c3ccc(Cl)cc3)c(NCc3ccccc3)o2)c1 -11.1%
CCc1ccc(-c2cn3c(n2)sc2cc(C(=O)NC4CCCCC4)ccc23)cc1 -14.4%
COc1ccc2sc(N(Cc3cccnc3)C(=O)c3ccc4c(c3)OCCO4)nc2c1 -39.9%
COc1ccc(OC)c(NC(=O)c2c(NCc3sccc3C)sc3c2CCCCC3)c1 -9.69%
COc1ccc2c(c1)-c1nc(NC(=O)c3ccc(OC)c(Br)c3)sc1CC2 -4.12%
